Measurements taken from PubChem BioAssay AID1865 (National Center for Advancing Translational Sciences (NCATS), 2009).
In all, about 280,000 compounds went through this assay and about 540 (0.19%) were called active. Inconclusive means that the source gave no clear call. Such entries were picked first, then a sample of the others. The call rests on the fitted dose curve; in most records, active means well fitted activation curve with a large enough effect; inconclusive means small, poorly fitted or top-dose-only effect; inactive means flat fitted curve, though single readings scatter. Where the call is inconclusive, the potency comes from a doubtful curve fit. Non-standard residues stand in square brackets, D forms with d. Residues, ends and D or L forms follow the SMILES beside them. Orn = NCCC[CH](N)C(=O)O

Assay: Quantitative High-Throughput Screen for Regulators of Epigenetic Control; further: nearly all actives have a fitted effect of over 60% in size; on GFP activation: % of control where 0% means no effect
Settings: murine LDR cells, GFP reporter derepression, 30 h; GFP activation: at 53.9 µM (top of the series)
In short: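 Readout is the number of GFP-expressing murine LDR cells, counted by cytometry following washing. Cells were treated with compound for 30 h at 37 C; the stably integrated CMV-GFP locus is normally silent.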
Potency means the concentration at half of the fitted maximal effect; tags describe the fitted curve by direction and shape.

SMILES	Potency	GFP activation
O=C(Cn1cc(S(=O)(=O)c2ccc(Cl)cc2)c(=O)c2ccccc21)Nc1ccc2c(c1)OCO2	inconclusive: 35.5 µM [activator, single point]	–
Cc1nc([N+](=O)[O-])c(Sc2nc3ccccc3n2C)n1Cc1ccccc1	–	inactive: -1.77%
COc1cc(NC(=O)Cn2c(=O)n(Cc3ccccc3Cl)c(=O)c3cc(OC)c(OC)cc32)cc(OC)c1	–	inactive: 1.75%
COc1ccc(-c2c/c(=N\c3nc(-c4ccccc4)c(C)s3)c3ccccc3o2)cc1O	inconclusive: 22.4 µM [activator, single point]	–
CN(C)S(=O)(=O)c1cc(NC(=O)CN2CCc3ccccc32)ccc1Cl	inconclusive: 4.47 µM [activator, single point]	–
Cc1nn(Cc2c(F)c(F)c(F)c(F)c2F)c(C)c1NC(=O)c1cccc(COc2ccc(Cl)cc2)c1	–	inactive: 2.33%
Cc1nc2sccn2c1-c1csc(NCc2ccccc2)n1	–	inactive: -1.43%
CC(C)c1ccc(NC(=O)C2Cc3ccccc3N2C(=O)c2ccccc2)cc1 (centres undefined)	inconclusive: 35.5 µM [activator, single point]	–
O=C(NCCN1CCCC1)c1ccc(Cl)cc1	–	inactive: 0.99%
COc1cccc(C2C3=C(N=c4s/c(=C\c5ccccc5O)c(=O)n42)c2ccccc2CC3)c1OC (centres undefined)	inconclusive: 35.5 µM [activator, single point]	–
CCOc1ccc(-c2nnc(SCC(=O)Nc3cc(C)on3)o2)cc1	inconclusive: 35.5 µM [activator, single point]	–
NC(=O)CSCc1nc2ccccc2s1	–	inactive: -10%
Clc1ccccc1/C=N/NC1=Nc2cccc3cccc1c23	inconclusive: 31.6 µM [activator, single point]	–
CCNC(=S)Nc1ccc(Cl)c([N+](=O)[O-])c1	–	inactive: -1.19%
NC(=O)CC(NC(=O)Cc1cccc2ccccc12)c1ccc(NCCc2ccccc2F)c([N+](=O)[O-])c1 (centres undefined)	inconclusive: 35.5 µM [activator, single point]	–
Cc1ccc(Sc2cc(NCCCO)c([N+](=O)[O-])c3nonc23)cc1	inconclusive: 2.82 µM [activator, full curve]	–
COc1ccc(C(=O)CSC#N)cc1OC	inconclusive: 35.5 µM [activator, single point]	–
O=C(Nc1nc2ccccc2[nH]1)C1CCCC1	inconclusive: 3.98 µM [activator, single point]	–
CCCN1CCc2c(sc(NC(=S)NC(=O)c3ccccc3)c2C#N)C1	inconclusive: 28.2 µM [activator, single point]	–
O=C(Nc1cnc2ccccc2c1)C1COc2ccccc2O1 (centres undefined)	inconclusive: 6.31 µM [activator, single point]	–
O=[N+]([O-])c1c(NCCCO)cc(Sc2nc3ccccc3s2)c2nonc12	inconclusive: 12.6 µM [activator, partial curve]	–
Cc1cccc(C)c1-n1c(C)cc(/C=N\Nc2ccc([N+](=O)[O-])cn2)c1C	inconclusive: 8.91 µM [activator, partial curve]	–

SMILES	Potency	GFP activation
COc1ccc(C(C)C)cc1S(=O)(=O)NCCc1c(C)[nH]c2c(Cl)cccc12	inconclusive: 3.98 µM [activator, single point]	–
CC(C)c1ccc(NC(=O)c2cc(S(=O)(=O)NCCc3ccccc3)ccc2F)cc1	inconclusive: 15.8 µM [activator, single point]	–
Cc1cccn2c(=O)c3cc(C#N)c(=NC(=O)c4cccs4)n(CCCOC(C)C)c3nc12	inconclusive: 15.8 µM [activator, single point]	–
COC(=O)C1=C(C)OC(N)=C(C#N)C1c1cc(C)sc1C (centres undefined)	inconclusive: 35.5 µM [activator, single point]	–
CCCN1C(=O)/C(=C/c2ccc(C)o2)NC1=S	inconclusive: 31.6 µM [activator, single point]	–
COc1cccc(/C(O)=C/c2nc3ccc(C(=O)NCCc4cccc(C)c4)cc3[nH]c2=O)c1	active: 14.1 µM	–
COC(=O)[C@@]1(Cc2ccc(F)cc2)[C@H]2c3cc(C(=O)N4CCCC4)n(Cc4ccc(C)o4)c3C[C@H]2CN1C(=O)c1ccccc1	inconclusive: 35.5 µM [activator, single point]	–
CCC(NC(=O)NNC(N)=S)(C(F)(F)F)C(F)(F)F	–	inactive: 2.05%
COc1ccc(NC(=O)C2CCCN(S(=O)(=O)c3ccc4[nH]c(=O)ccc4c3)C2)cc1Cl (centres undefined)	inconclusive: 35.5 µM [activator, single point]	–
O=[N+]([O-])c1ccc(/C=C/C2=NN(c3ccccc3)C(c3ccco3)C2)o1 (centres undefined)	active: 12.6 µM	–
CC(C)CC1NC(=O)C(CCCN)NC(=O)C(C(C)C)NC(=O)C2CCCN2C(=O)C(Cc2ccccc2)NC(=O)C(CC(C)C)NC(=O)C(CCCN)NC(=O)C(C(C)C)NC(=O)C2CCCN2C(=O)C(Cc2ccccc2)NC1=O (centres undefined) (cyclo(FPV[Orn]LFPV[Orn]L); configuration not given here)	inconclusive: 5.62 µM [activator, single point]	–
Nc1nonc1-c1nc2ccccc2n1CC(=O)Nc1cccc(C(F)(F)F)c1	inconclusive: 31.6 µM [activator, single point]	–
Cc1cccc(Cn2cc3c(=O)n(CC(=O)Nc4cccc(C)c4C)nc-3c3cc(F)ccc32)c1	inconclusive: 20 µM [activator, single point]	–
O=[N+]([O-])c1c(NCCCO)cc(Sc2ccc(Cl)cc2)c2nonc12	inconclusive: 5.62 µM [activator, single point]	–
Oc1sc(C=Nc2ccc(F)cc2)c2ccccc12	inconclusive: 17.8 µM [activator, single point]	–
CNC(=S)SCCOc1ccccc1	–	inactive: -0.971%
CCCNC(=O)c1nnsc1S(=O)(=O)c1ccc(Cl)cc1	inconclusive: 6.31 µM [activator, single point]	–
Cn1nc(-c2ccccc2)c(-c2ccccc2)c(C(=O)Nc2ccccc2C(N)=O)c1=O	inconclusive: 2.82 µM [activator, single point]	–
O=C(O)CCN1C(=O)C2C3C=CC(C3)C2C1=O (centres undefined)	–	inactive: 3.03%
CCOC(=O)C1=C(Cc2ccc(C)cc2)C(=O)c2ccccc2C1=O	inconclusive: 31.6 µM [activator, single point]	–
CCC(C(=O)NCCc1ccc(OC)c(OC)c1)n1nc(C)c2sc3ccccc3c2c1=O (centres undefined)	inconclusive: 35.5 µM [activator, single point]	–
CCOC(=O)c1c(-c2ccc(C)o2)csc1NC(=O)CN(C)CC(=O)Nc1ccc(C)cc1	inconclusive: 35.5 µM [activator, single point]	–

SMILES	Potency	GFP activation
Cc1ccc(CN2CCC(CNC(=O)c3cc4ccc5cccnc5c4[nH]3)CC2)cc1	–	inactive: 0%
COc1ccccc1Cn1cc(C(=O)c2ccc(Cl)cc2)c(=O)c2cc3c(cc21)OCCO3	inconclusive: 35.5 µM [activator, single point]	–
O=C1C(Cl)=C(NCCc2ccccc2)C(=O)N1CCc1ccccc1	inconclusive: 35.5 µM [activator, single point]	–
Cc1ccc2nc(NC(=O)C3CCN(S(=O)(=O)c4cccs4)CC3)sc2c1	–	inactive: 0%
O=C(NN1C(=O)c2ccccc2NC1c1ccc([N+](=O)[O-])o1)c1ccc([N+](=O)[O-])cc1 (centres undefined)	active: 10 µM	–
Cc1cc(C)c(S(=O)(=O)OC[C@H]2C=CC[C@@H](CCC[C@H]3O[C@H](C(=O)OC(C)C)CC[C@@H]3C)O2)c(C)c1	–	inactive: -1.14%
O=S(=O)(NCCc1csc2nc(-c3ccc(Cl)cc3)nn12)c1ccc(Oc2ccccc2)cc1	–	inactive: 5.72%
COCc1cc(/C=N\NC(=O)Cc2ccc(Cl)cc2)ccc1OC	inconclusive: 22.4 µM [activator, single point]	–
COc1cc(Cl)c(C)cc1Nc1nc2ccccc2nc1NS(=O)(=O)c1ccccc1	inconclusive: 31.6 µM [activator, single point]	–
O=[N+]([O-])c1cc(C(F)(F)F)cc([N+](=O)[O-])c1Sc1n[nH]c(C(F)(F)F)n1	inconclusive: 15.8 µM [activator, single point]	–
COc1ccc(Cn2c(=O)c3oc4ccccc4c3n(CC(=O)Nc3cc(C)cc(C)c3)c2=O)cc1	inconclusive: 10 µM [activator, partial curve]	–
O=C(CSc1cccc[n+]1[O-])c1ccc(Cl)s1	inconclusive: 35.5 µM [activator, single point]	–
C=C(C)COc1ccc(-c2n[nH]c(C)c2-c2ccc(OC)cc2)c(O)c1	inconclusive: 35.5 µM [activator, single point]	–
Cn1c(=O)[nH]c(=O)c2c1nc(N/N=C/C(Br)=C/c1ccccc1)n2CCO	inconclusive: 17.8 µM [activator, single point]	–
O=C(N/N=C/c1cccs1)c1cc(C2CC2)nc2ccccc12	–	inactive: -0.885%
CN(C)S(=O)(=O)c1ccc(NC(=O)CN2CCCc3ccccc32)cc1	inconclusive: 15.8 µM [activator, single point]	–
NNC(=O)c1cc(Br)cs1	inconclusive: 20 µM [activator, single point]	–
CCN(CC)c1ccc(NC(=O)C(NS(=O)(=O)c2cccs2)C(C)C)c(C)c1 (centres undefined)	–	inactive: -2.83%
C=CCNc1sc(C(=O)c2cccs2)c(N)c1C#N	inconclusive: 31.6 µM [activator, single point]	–
Nc1nc(CN2CCN(c3ccc(F)cc3)CC2)nc(N2CCCc3ccccc32)n1	inconclusive: 6.31 µM [activator, single point]	–
